Measurements: patent US10299477B2 (priority 2015, dated 2019)

Key:
Type in all cases: in vivo
Botrytis cinerea = experiment: Test Example B: Gray mold on tomato; conditions: in vivo
From the text: [Test Example B] Gray Mold on Tomato
Seeds of a test plant (tomato variety: Oogata Fukuju) were planted followed by cultivating until three to five first leaves (true leaves) appeared.

Alternaia brassicicola = experiment: Test Example C: Alternaria sooty spot on cabbage; conditions: in vivo
From the text: [Test Example C] Alternaria Sooty Spot on Cabbage
Seeds of a test plant (cabbage variety: Shikidori) were planted followed by cultivating until the cotyledons extended.

[1] = system: Blumeria graminis f sp. hordei; experiment: Test Example D: Powdery mildew on barley; conditions: in vivo
From the text: [Test Example D] Powdery Mildew on Barley
After the sprayed dilutions were dried, conidia of Blumeria graminis f sp. hordei were inoculated to the plants by shaking off.

Puccinia recondita = experiment: Test Example E: Brown rust on wheat; conditions: in vivo
From the text: [Test Example E] Brown Rust on Wheat

Plasmopara viticola = experiment: Test Example G: Downy mildew on vine; conditions: 250 ppm, sprayed 2.5 ml/pot before inoculation; evaluated 7-10 days after inoculation
From the text: [Test Example G] Downy Mildew on Vine
Seeds of a test plant (grape variety: Neomuscat) were planted followed by cultivating until three to four first leaves appeared. […] After the sprayed dilutions were dried, a zoosporangia suspension (1-2×10^4 zoosporangia/ml) of Plasmopara viticola was inoculated to the plants by spraying.

SMILES: CCn1c(-c2c(F)cc(OC)cc2F)c(-c2cc(F)cc(F)c2Cl)ccc1=O [Compound 665]
- Test B (control value class, gray mold on tomato) (Botrytis cinerea): H (H shows more than 50% of control values)
- Test C (control value class, Alternaria sooty spot on cabbage) (Alternaia brassicicola): H (H shows more than 50% of control values)
- Test D (control value class, powdery mildew on barley) [1]: H (H shows more than 50% of control values)
- Test E (control value class, brown rust on wheat) (Puccinia recondita): H (H shows more than 50% of control values)
- Test G (control value class, downy mildew on vine) (Plasmopara viticola): L (L shows 50% or less of control values)

SMILES: CCn1c(-c2c(F)cc(OC)cc2F)c(-c2cc(F)cc(F)c2Cl)cc(Cl)c1=O [Compound 666]
- Test B (control value class, gray mold on tomato) (Botrytis cinerea): H (H shows more than 50% of control values)
- Test C (control value class, Alternaria sooty spot on cabbage) (Alternaia brassicicola): H (H shows more than 50% of control values)
- Test D (control value class, powdery mildew on barley) [1]: H (H shows more than 50% of control values)
- Test E (control value class, brown rust on wheat) (Puccinia recondita): H (H shows more than 50% of control values)
- Test G (control value class, downy mildew on vine) (Plasmopara viticola): H (H shows more than 50% of control values)

SMILES: CCn1c(-c2c(F)cc(OC)cc2F)c(-c2ccccc2Br)ccc1=O [Compound 667]
- Test B (control value class, gray mold on tomato) (Botrytis cinerea): H (H shows more than 50% of control values)
- Test C (control value class, Alternaria sooty spot on cabbage) (Alternaia brassicicola): H (H shows more than 50% of control values)
- Test D (control value class, powdery mildew on barley) [1]: H (H shows more than 50% of control values)
- Test E (control value class, brown rust on wheat) (Puccinia recondita): H (H shows more than 50% of control values)
- Test G (control value class, downy mildew on vine) (Plasmopara viticola): H (H shows more than 50% of control values)

SMILES: CCn1c(-c2c(F)cc(OC)cc2F)c(-c2ccccc2Br)cc(Cl)c1=O [Compound 668]
- Test B (control value class, gray mold on tomato) (Botrytis cinerea): H (H shows more than 50% of control values)
- Test C (control value class, Alternaria sooty spot on cabbage) (Alternaia brassicicola): H (H shows more than 50% of control values)
- Test D (control value class, powdery mildew on barley) [1]: H (H shows more than 50% of control values)
- Test E (control value class, brown rust on wheat) (Puccinia recondita): H (H shows more than 50% of control values)
- Test G (control value class, downy mildew on vine) (Plasmopara viticola): H (H shows more than 50% of control values)

SMILES: COc1cc(F)c(-c2c(-c3cccc(OC)c3Cl)cc(Br)c(=O)n2C)c(F)c1 [Compound 669]
- Test B (control value class, gray mold on tomato) (Botrytis cinerea): H (H shows more than 50% of control values)
- Test C (control value class, Alternaria sooty spot on cabbage) (Alternaia brassicicola): H (H shows more than 50% of control values)
- Test D (control value class, powdery mildew on barley) [1]: L (L shows 50% or less of control values)
- Test E (control value class, brown rust on wheat) (Puccinia recondita): H (H shows more than 50% of control values)
- Test G (control value class, downy mildew on vine) (Plasmopara viticola): L (L shows 50% or less of control values)

SMILES: CCOc1cc(F)c(-c2c(-c3cccc(OC)c3Cl)cc(Br)c(=O)n2C)c(F)c1 [Compound 670]
- Test B (control value class, gray mold on tomato) (Botrytis cinerea): H (H shows more than 50% of control values)
- Test C (control value class, Alternaria sooty spot on cabbage) (Alternaia brassicicola): H (H shows more than 50% of control values)
- Test D (control value class, powdery mildew on barley) [1]: L (L shows 50% or less of control values)
- Test E (control value class, brown rust on wheat) (Puccinia recondita): H (H shows more than 50% of control values)
- Test G (control value class, downy mildew on vine) (Plasmopara viticola): H (H shows more than 50% of control values)

SMILES: COc1cccc(-c2cc(C)c(=O)n(C)c2-c2c(F)cc(F)cc2F)c1Cl [Compound 671]
- Test B (control value class, gray mold on tomato) (Botrytis cinerea): H (H shows more than 50% of control values)
- Test C (control value class, Alternaria sooty spot on cabbage) (Alternaia brassicicola): H (H shows more than 50% of control values)
- Test D (control value class, powdery mildew on barley) [1]: H (H shows more than 50% of control values)
- Test E (control value class, brown rust on wheat) (Puccinia recondita): H (H shows more than 50% of control values)
- Test G (control value class, downy mildew on vine) (Plasmopara viticola): H (H shows more than 50% of control values)

SMILES: COc1cc(F)c(-c2c(-c3cccc(OC)c3Cl)cc(C)c(=O)n2C)c(F)c1 [Compound 672]
- Test B (control value class, gray mold on tomato) (Botrytis cinerea): H (H shows more than 50% of control values)
- Test C (control value class, Alternaria sooty spot on cabbage) (Alternaia brassicicola): H (H shows more than 50% of control values)
- Test D (control value class, powdery mildew on barley) [1]: H (H shows more than 50% of control values)
- Test E (control value class, brown rust on wheat) (Puccinia recondita): H (H shows more than 50% of control values)
- Test G (control value class, downy mildew on vine) (Plasmopara viticola): H (H shows more than 50% of control values)

SMILES: CCn1c(-c2c(F)cc(F)cc2F)c(-c2cccc(F)c2C)ccc1=O [Compound 674]
- Test B (control value class, gray mold on tomato) (Botrytis cinerea): H (H shows more than 50% of control values)
- Test C (control value class, Alternaria sooty spot on cabbage) (Alternaia brassicicola): H (H shows more than 50% of control values)
- Test D (control value class, powdery mildew on barley) [1]: H (H shows more than 50% of control values)
- Test E (control value class, brown rust on wheat) (Puccinia recondita): H (H shows more than 50% of control values)
- Test G (control value class, downy mildew on vine) (Plasmopara viticola): H (H shows more than 50% of control values)

SMILES: COc1cc(F)c(-c2c(-c3cc(F)cc(F)c3Cl)ccc(=O)n2C)c(F)c1 [Compound 676]
- Test B (control value class, gray mold on tomato) (Botrytis cinerea): H (H shows more than 50% of control values)
- Test C (control value class, Alternaria sooty spot on cabbage) (Alternaia brassicicola): H (H shows more than 50% of control values)
- Test D (control value class, powdery mildew on barley) [1]: H (H shows more than 50% of control values)
- Test E (control value class, brown rust on wheat) (Puccinia recondita): H (H shows more than 50% of control values)
- Test G (control value class, downy mildew on vine) (Plasmopara viticola): H (H shows more than 50% of control values)

SMILES: COc1cc(F)c(-c2c(-c3cc(F)cc(F)c3Cl)cc(Cl)c(=O)n2C)c(F)c1 [Compound 677]
- Test B (control value class, gray mold on tomato) (Botrytis cinerea): H (H shows more than 50% of control values)
- Test C (control value class, Alternaria sooty spot on cabbage) (Alternaia brassicicola): H (H shows more than 50% of control values)
- Test D (control value class, powdery mildew on barley) [1]: H (H shows more than 50% of control values)
- Test E (control value class, brown rust on wheat) (Puccinia recondita): H (H shows more than 50% of control values)
- Test G (control value class, downy mildew on vine) (Plasmopara viticola): H (H shows more than 50% of control values)

SMILES: COc1cc(F)c(-c2c(-c3cc(F)cc(F)c3Cl)ccc(=O)n2CC(F)F)c(F)c1 [Compound 678]
- Test B (control value class, gray mold on tomato) (Botrytis cinerea): H (H shows more than 50% of control values)
- Test C (control value class, Alternaria sooty spot on cabbage) (Alternaia brassicicola): H (H shows more than 50% of control values)
- Test D (control value class, powdery mildew on barley) [1]: H (H shows more than 50% of control values)
- Test E (control value class, brown rust on wheat) (Puccinia recondita): H (H shows more than 50% of control values)
- Test G (control value class, downy mildew on vine) (Plasmopara viticola): H (H shows more than 50% of control values)

SMILES: COc1cc(F)c(-c2c(-c3cc(F)cc(F)c3Cl)cc(Cl)c(=O)n2CC(F)F)c(F)c1 [Compound 679]
- Test B (control value class, gray mold on tomato) (Botrytis cinerea): H (H shows more than 50% of control values)
- Test C (control value class, Alternaria sooty spot on cabbage) (Alternaia brassicicola): H (H shows more than 50% of control values)
- Test D (control value class, powdery mildew on barley) [1]: H (H shows more than 50% of control values)
- Test E (control value class, brown rust on wheat) (Puccinia recondita): H (H shows more than 50% of control values)
- Test G (control value class, downy mildew on vine) (Plasmopara viticola): L (L shows 50% or less of control values)

SMILES: Cn1c(-c2c(F)cc(Br)cc2F)c(-c2cc(F)ccc2Cl)ccc1=O [Compound 680]
- Test B (control value class, gray mold on tomato) (Botrytis cinerea): H (H shows more than 50% of control values)
- Test C (control value class, Alternaria sooty spot on cabbage) (Alternaia brassicicola): H (H shows more than 50% of control values)
- Test D (control value class, powdery mildew on barley) [1]: L (L shows 50% or less of control values)
- Test E (control value class, brown rust on wheat) (Puccinia recondita): H (H shows more than 50% of control values)
- Test G (control value class, downy mildew on vine) (Plasmopara viticola): L (L shows 50% or less of control values)
